This is one part of the list.
What was measured:
HSkMC = human skeletal muscle cells; assay: cytotoxicity call (relative viability < 0.9); details: 10 µM
HepG2 = assay: cytotoxicity call (relative viability < 0.9); details: 10 µM
S. aureus RN4220 = assay: growth inhibition call (relative growth <= 0.2); details: 50 µM

C[C@H]1CN([C@@H](C)CO)C(=O)c2cccc(NC(=O)c3ccncc3)c2O[C@@H]1CN(C)Cc1ccc(C(=O)O)cc1
inactive: cytotoxicity call (HSkMC) | cytotoxicity call (HepG2) | growth inhibition call (S. aureus RN4220)

Nc1nc(=O)n(C2CSC(CO)O2)cc1F (stereo unspecified)
inactive: cytotoxicity call (HSkMC) | cytotoxicity call (HepG2) | growth inhibition call (S. aureus RN4220)

N#CC1C(=O)NC(=O)N=C1Nc1ccccc1 (stereo unspecified)
inactive: cytotoxicity call (HSkMC) | cytotoxicity call (HepG2) | growth inhibition call (S. aureus RN4220)

CC(C)NC(=O)N(C)C[C@@H]1Oc2ccc(NC(=O)Cc3ccccc3)cc2CC(=O)N([C@H](C)CO)C[C@@H]1C
inactive: cytotoxicity call (HSkMC) | cytotoxicity call (HepG2) | growth inhibition call (S. aureus RN4220)

C[C@@H]1CN([C@H](C)CO)C(=O)c2cc(NC(=O)c3ccncc3)ccc2O[C@@H](C)CCCCO[C@H]1CN(C)S(=O)(=O)c1cn(C)cn1
inactive: cytotoxicity call (HSkMC) | cytotoxicity call (HepG2) | growth inhibition call (S. aureus RN4220)

C[C@@H]1CCCCO[C@@H](CN(C)C(=O)Nc2ccc(F)cc2)[C@H](C)CN([C@H](C)CO)C(=O)c2cc(NC(=O)C3CCCCC3)ccc2O1
inactive: cytotoxicity call (HSkMC) | cytotoxicity call (HepG2) | growth inhibition call (S. aureus RN4220)

C[C@@H]1CCCCO[C@@H](CN(C)C(=O)Nc2cccc3ccccc23)[C@H](C)CN([C@H](C)CO)C(=O)c2cc(N(C)C)ccc2O1
inactive: cytotoxicity call (HSkMC) | cytotoxicity call (HepG2) | growth inhibition call (S. aureus RN4220)

COc1ccc(CN(C)C[C@H]2OCCCC[C@@H](C)Oc3ccc(NC(=O)NC(C)C)cc3C(=O)N([C@@H](C)CO)C[C@H]2C)cc1
inactive: cytotoxicity call (HSkMC) | cytotoxicity call (HepG2) | growth inhibition call (S. aureus RN4220)

C[C@H](CO)N1C[C@H](C)[C@H](CN(C)Cc2ccc(Cl)c(Cl)c2)OCc2ccccc2-c2ccccc2C1=O
inactive: cytotoxicity call (HSkMC) | cytotoxicity call (HepG2) | growth inhibition call (S. aureus RN4220)

C[C@H](CO)N1C[C@H](C)[C@@H](CN(C)Cc2ccc(Oc3ccccc3)cc2)Oc2ccc(NC(=O)CCCN(C)C)cc2CC1=O
inactive: cytotoxicity call (HSkMC) | cytotoxicity call (HepG2) | growth inhibition call (S. aureus RN4220)

Cc1noc(C)c1S(=O)(=O)Nc1ccc2c(c1)C(=O)N([C@@H](C)CO)C[C@H](C)[C@H](CN(C)Cc1ccc(Oc3ccccc3)cc1)O2
inactive: cytotoxicity call (HSkMC) | cytotoxicity call (HepG2) | growth inhibition call (S. aureus RN4220)

C[C@@H]1CCCCO[C@H](CN(C)C(=O)Nc2ccc3c(c2)OCO3)[C@@H](C)CN([C@@H](C)CO)C(=O)c2cc(NC(=O)C3CCCCC3)ccc2O1
inactive: cytotoxicity call (HSkMC) | cytotoxicity call (HepG2) | growth inhibition call (S. aureus RN4220)

COc1ccc(-c2cnc3c(c2)C(=O)N([C@H](C)CO)C[C@@H](C)[C@@H](CN(C)S(=O)(=O)c2ccc(OC)cc2)O3)cc1
inactive: cytotoxicity call (HSkMC) | cytotoxicity call (HepG2) | growth inhibition call (S. aureus RN4220)

CCN1[C@@H]2c3ccc(-c4ccc(C(=O)N(C)C)cc4)c(=O)n3C[C@@H]2[C@@H](CO)[C@@H]1C(=O)NCCOC
inactive: cytotoxicity call (HSkMC) | cytotoxicity call (HepG2) | growth inhibition call (S. aureus RN4220)

COc1ccc(NC(=O)Nc2ccc3c(c2)C(=O)N([C@@H](C)CO)C[C@H](C)[C@@H](CN(C)C(=O)Nc2cccc4ccccc24)OCCCC[C@@H](C)O3)cc1
inactive: cytotoxicity call (HSkMC) | cytotoxicity call (HepG2) | growth inhibition call (S. aureus RN4220)

C[C@H]1CN([C@@H](C)CO)C(=O)Cc2cc(NC(=O)Nc3ccc(F)cc3)ccc2O[C@@H]1CN(C)C(=O)Nc1cccc2ccccc12
inactive: cytotoxicity call (HSkMC) | cytotoxicity call (HepG2) | growth inhibition call (S. aureus RN4220)

C[C@@H]1CN([C@H](C)CO)S(=O)(=O)c2ccc(C#CC3(O)CCCC3)cc2O[C@H]1CN(C)C(=O)Cc1cccnc1
inactive: cytotoxicity call (HSkMC) | cytotoxicity call (HepG2) | growth inhibition call (S. aureus RN4220)

Cc1nc(-c2sc3ccc(Cl)cc3c2C)cs1
inactive: cytotoxicity call (HSkMC) | cytotoxicity call (HepG2) | growth inhibition call (S. aureus RN4220)

C[C@H](CO)N1C[C@H](C)[C@H](CN(C)S(=O)(=O)c2ccc(F)cc2)Oc2ccc(NS(=O)(=O)c3ccccc3)cc2C1=O
inactive: cytotoxicity call (HSkMC) | cytotoxicity call (HepG2) | growth inhibition call (S. aureus RN4220)

C[C@H](CO)N1C[C@H](C)[C@@H](CN(C)C(=O)Nc2ccc(C(F)(F)F)cc2)Oc2ccc(NC(=O)Nc3ccccc3)cc2CC1=O
inactive: cytotoxicity call (HSkMC) | cytotoxicity call (HepG2) | growth inhibition call (S. aureus RN4220)

COc1ccc(S(=O)(=O)Nc2cccc3c2O[C@H](CN(C)S(=O)(=O)c2ccc(OC)cc2)[C@@H](C)CN([C@@H](C)CO)C3=O)cc1
inactive: cytotoxicity call (HSkMC) | cytotoxicity call (HepG2) | growth inhibition call (S. aureus RN4220)

Cc1ccc(S(=O)(=O)N(C)C[C@@H]2OCCCC[C@@H](C)Oc3ccc(NS(=O)(=O)c4ccc(F)cc4)cc3C(=O)N([C@H](C)CO)C[C@@H]2C)cc1
inactive: cytotoxicity call (HSkMC) | cytotoxicity call (HepG2) | growth inhibition call (S. aureus RN4220)

C[C@@H]1CN([C@H](C)CO)C(=O)c2cccc(NC(=O)Nc3ccc(C(F)(F)F)cc3)c2O[C@H]1CN(C)Cc1ccc(C(=O)Nc2ccccc2N)cc1
inactive: cytotoxicity call (HSkMC) | cytotoxicity call (HepG2) | growth inhibition call (S. aureus RN4220)

COCC#Cc1ccc2c(c1)O[C@H](CN(C)S(C)(=O)=O)[C@@H](C)CN([C@H](C)CO)S2(=O)=O
inactive: cytotoxicity call (HSkMC) | cytotoxicity call (HepG2) | growth inhibition call (S. aureus RN4220)

C[C@@H]1CN([C@H](C)CO)C(=O)c2cc(NC(=O)Cc3ccccc3)ccc2O[C@@H](C)CCCCO[C@@H]1CN(C)C(=O)NC1CCCCC1
inactive: cytotoxicity call (HSkMC) | cytotoxicity call (HepG2) | growth inhibition call (S. aureus RN4220)

COC(=O)[C@H](Cc1ccccc1)N1CC2=C[C@@H](C3CC3)n3c(=O)n(C)c(=O)n3[C@H]2[C@@H]1[C@@H](O)Cc1ccccc1
inactive: cytotoxicity call (HSkMC) | cytotoxicity call (HepG2) | growth inhibition call (S. aureus RN4220)

O=C(C[C@@H]1CC=CC[C@@H](NC(=O)OCC2c3ccccc3-c3ccccc32)C(=O)OC[C@@H](Cc2ccccc2)NC1=O)N[C@@H](CO)Cc1ccccc1
inactive: cytotoxicity call (HSkMC) | cytotoxicity call (HepG2) | growth inhibition call (S. aureus RN4220)

Source: the antibiotic and cytotoxicity screens of Wong et al. (2023)
